± gives the standard deviation of the averaged measurements. The list shows a part of the results.
These sequences were tested on PfAP2-LT AP2 domain (GST-tagged) (assay: gcPBM binding intensity (ln(normalized median fluorescence intensity)); higher = stronger DNA binding).
Summary of the method: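 GST-fused DNA-binding domains of P. falciparum, expressed in E. coli, were applied at about 25 μg on average for 1 h to an Agilent 4 × 180k array of primer-extended double-stranded 36-bp intergenic genomic probes and negative controls. Binding intensity is the highest Masliner-normalised natural-log median intensity across replicate spots of either probe orientation, measured with Alexa488 anti-GST antibody and a 488 nm scan.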
“TATATATATTGTTATTGTACACAAATATAGGAAATA [XGTACX_site7110]” was tested, and the “gcPBM binding intensity (ln)” value was 8.61 ± 0.46. In the case of “AAATTTGGTGAAGGATGTACTTTACCTAATACTTGT [XGTACX_site4825]”, the “gcPBM binding intensity (ln)” value is reported as 8.71 ± 0.38. “AGAATTATATCATGGTGTACTTATTTGTTTATTTCT [XGTACX_site5795]” was tested, and the “gcPBM binding intensity (ln)” value was 9.05 ± 0.4. “AAAAAAATATATTCCTAATTTATGATTAAAAGGAAT [CACACA_negctrl_site751]” was tested, and the “gcPBM binding intensity (ln)” value was 8.37 ± 0.43. With “ATAAATTAAACAAACACACACGTTCTTTTATTTACT [CACACA_site4556]” the “gcPBM binding intensity (ln)” value was 9.12 ± 0.46. For “TTTTTTTTTGGGTGTACACATGAATATATATTTTTT [CACACA_site5254]”, the “gcPBM binding intensity (ln)” value was 8.76 ± 0.38. In the case of “GTATGTATGTATGTATGTACTTATTTATTTATTTAT [XGTACX_site1921]”, the “gcPBM binding intensity (ln)” value is reported as 9.35 ± 0.3. With “TAAAAGTATTCCTTTTGTACATATAATGAAAACAAT [XGTACX_site2069]” the “gcPBM binding intensity (ln)” value was 8.52 ± 0.43. For “CTGTTTTTACTAAGTTGTACAAATGATGATACCCTA [XGTACX_site630]”, the “gcPBM binding intensity (ln)” value was 8.62 ± 0.45. With “CTATATTTTTAAAAATGTACTTTATAATAAAATACT [XGTACX_site3593]” the “gcPBM binding intensity (ln)” value was 8.35 ± 0.36. For “ATACAATAATATAAATGTACAAATTATATCTTAATT [XGTACX_site6004]”, the “gcPBM binding intensity (ln)” value was 8.82 ± 0.44. For “TAAATTTAAAATGACACACACTAAAATTATTTAAGT [CACACA_site4816]”, the “gcPBM binding intensity (ln)” value was 9.06 ± 0.4. For “ACCTTTAATATATACACACACATAAAAAAAATATAT [CACACA_site1843]”, the “gcPBM binding intensity (ln)” value was 9.38 ± 0.36. “AAATATTCATAGTATACACACATTTATTTATAACCA [CACACA_site6502]” was tested, and the “gcPBM binding intensity (ln)” value was 8.82 ± 0.35. For “AATGATAAAAATAAATGTACAGAATGATATTTTTTT [XGTACX_site5976]”, the “gcPBM binding intensity (ln)” value was 8.71 ± 0.47. “ATTAATAAATAAATGACACACACACCCACAAAAAAA [CACACA_site8839]” was tested, and the “gcPBM binding intensity (ln)” value was 9.9 ± 0.12. “AAAAAATTGTTTCCCTGTACTCAAAAAAAAAAAAAA [XGTACX_site8070]” was tested, and the “gcPBM binding intensity (ln)” value was 8.2 ± 0.33. In the case of “AAAAAAGAAAAGAAATGTACAGAGCTTATCTTTTTA [XGTACX_site5677]”, the “gcPBM binding intensity (ln)” value is reported as 8.61 ± 0.48. With “TTATTCCTATTTGGATGTACATTTTAATATAAACAT [XGTACX_site4386]” the “gcPBM binding intensity (ln)” value was 8.71 ± 0.4. With “TTCAATTTTACATGTAGTACATAAATTATACACAAA [XGTACX_site4946]” the “gcPBM binding intensity (ln)” value was 8.45 ± 0.32. For “TTTTTTAATTTTACATGTACATACAGGTTTTTTTTT [XGTACX_site4539]”, the “gcPBM binding intensity (ln)” value was 8.76 ± 0.45. “TAATAATAGTAAATATGTACATATATATATATATAG [XGTACX_site4602]” was tested, and the “gcPBM binding intensity (ln)” value was 9.11 ± 0.38. In the case of “TAAAATTTACGGTCTTGTTGCGCAACCAACATTGTC [CACACA_negctrl_site1175]”, the “gcPBM binding intensity (ln)” value is reported as 9.08 ± 0.44. In the case of “GTTTTTTTTTTTTTGGTGCGTCATTTTCAAAAGAAG [GTGCAC_site9745]”, the “gcPBM binding intensity (ln)” value is reported as 8.57 ± 0.41. With “ATTACATATGTCGCTTGTACGCATAATTTTTTTATA [XGTACX_site5782]” the “gcPBM binding intensity (ln)” value was 8.99 ± 0.38. “ATTTTTTTATTTTGAAGTACATAAACTTTATATATA [XGTACX_site1746]” was tested, and the “gcPBM binding intensity (ln)” value was 8.43 ± 0.39. In the case of “ATTTAAAAAAAAAGACGTACATTTATATAGAATCCT [XGTACX_site6457]”, the “gcPBM binding intensity (ln)” value is reported as 8.53 ± 0.47. In the case of “TACACGCATAAACACACACACACACCCATATATATA [CACACA_site8114]”, the “gcPBM binding intensity (ln)” value is reported as 10.24 ± 0.05. In the case of “TTTATATTTAAAGAAACATGCATTTATCATATATAC [TGCATGCA_site173]”, the “gcPBM binding intensity (ln)” value is reported as 8.58 ± 0.44. With “CAATTTATAAAGAAAACACACATATACCTATATACA [CACACA_site6710]” the “gcPBM binding intensity (ln)” value was 8.86 ± 0.38. “TCTATAATATTTTTCACACACCATTTCCTTAAACAC [CACACA_site6747]” was tested, and the “gcPBM binding intensity (ln)” value was 9.11 ± 0.45. In the case of “AAAAAAATAAAATACAAAATGGCTATACAAAATAAA [GTGCAC_negctrl_site535]”, the “gcPBM binding intensity (ln)” value is reported as 8.85 ± 0.48. “TTTGTTGACGAACACACACACATACATATTTATATA [CACACA_site7141]” was tested, and the “gcPBM binding intensity (ln)” value was 9.47 ± 0.32. In the case of “TTTTCCTTTCACAATGGTACACAAATATACATGCAA [XGTACX_site7244]”, the “gcPBM binding intensity (ln)” value is reported as 8.64 ± 0.38. For “ATTTTTTTTCGTAATTGTTCTTAATGTTGAATTATA [CACACA_negctrl_site1135]”, the “gcPBM binding intensity (ln)” value was 8.7 ± 0.5. For “TAGTAATATGTATCCATACACACATACATTTTATTT [CACACA_site873]”, the “gcPBM binding intensity (ln)” value was 9.04 ± 0.4. With GTATAGTACAAATAAGTGCATATAAAAGAAATACAG the “gcPBM binding intensity (ln)” value was 9.21 ± 0.45. “ATAAATTTACATTTTTTTTTTTTTTTTTTTTTTTTT [GTGCAC_negctrl_site689]” was tested, and the “gcPBM binding intensity (ln)” value was 8.63 ± 0.13. With “AAAAAATATACATATTGTACATTTTTTATTAACACA [XGTACX_site6415]” the “gcPBM binding intensity (ln)” value was 8.53 ± 0.54. “TAATTTTTATTCAGTTCACACACGCTTTAATATTAT [CACACA_site9147]” was tested, and the “gcPBM binding intensity (ln)” value was 9.13 ± 0.45. With “ATTACCAAAAAAAGGTGTACAAATATAATTATGAAA [XGTACX_site44]” the “gcPBM binding intensity (ln)” value was 8.79 ± 0.6. For “GGAATAACCGGACACACACACACATATATATATATA [CACACA_site5874]”, the “gcPBM binding intensity (ln)” value was 10.39 ± 0.057. With “ATTTAAAATAGAAGTTATATTTATATGGGTGAAAAA [GTGCAC_negctrl_site296]” the “gcPBM binding intensity (ln)” value was 8.29 ± 0.48. TTATAAATAAAAAGAGTGCAATTATAAATATATATA was tested, and the “gcPBM binding intensity (ln)” value was 8.53 ± 0.57. “AAAAAAATACAAATATGTACACATATATATTTAAAA [XGTACX_site4729]” was tested, and the “gcPBM binding intensity (ln)” value was 8.83 ± 0.42. With “AAATAAAATATGAACAGTACTTTTGATATAACCATT [XGTACX_site1873]” the “gcPBM binding intensity (ln)” value was 8.81 ± 0.45. With “TCTAATCTGGAGAAAAGTACATAGTATCTGGTAACA [XGTACX_site2540]” the “gcPBM binding intensity (ln)” value was 8.62 ± 0.49. For “TTATTCATACAATATCGTACATATATATATATATAT [XGTACX_site1185]”, the “gcPBM binding intensity (ln)” value was 9.505 ± 0.035. With “ATCTTATATATATGTGTGCACGTATATATAAGCAAT [GTGCAC_site9933]” the “gcPBM binding intensity (ln)” value was 9.15 ± 0.27. With “GTACACCTATAATATACACACAACAAATATGCACAT [CACACA_site6603]” the “gcPBM binding intensity (ln)” value was 9.28 ± 0.26. In the case of “ATTATATATATATATACACACACATATATATATATA [CACACA_site8373]”, the “gcPBM binding intensity (ln)” value is reported as 9.47 ± 0.25. With “CACAAATATACAAATACACACAAATATACTCATATA [CACACA_site5339]” the “gcPBM binding intensity (ln)” value was 9.27 ± 0.39. With “GTACGTTTCTCCAGACTGCACTATACGACTCGTACA [GTGCAC_site9771]” the “gcPBM binding intensity (ln)” value was 9.03 ± 0.43. In the case of “TGTATTCCTTTTTATAGTACAATTTAAAAGTATAAA [XGTACX_site2045]”, the “gcPBM binding intensity (ln)” value is reported as 8.13 ± 0.37. With “AGAAAGATGCAAGAAACATGCAAAAAAAAAATTTCT [TGCATGCA_site725]” the “gcPBM binding intensity (ln)” value was 8.84 ± 0.45. ATTTTTAATGGATAAGTGCATAATATTATGATGCAA was tested, and the “gcPBM binding intensity (ln)” value was 8.63 ± 0.43. For “TATGTAATAAAATATACACACAATATACTTATATAT [CACACA_site3682]”, the “gcPBM binding intensity (ln)” value was 8.98 ± 0.33.

Reference: the supplement of paper PMC11417369
